Results on five variants are retold here after the supplement of paper PMC12217912.

This is one part of the list. Sequences were assembled here from the parent chain. Inactive controls read about 0.05.

The labels stand for the following.
B1: TEV protease; numbered along this chain (parent)
chain: MGESLFKGPRDYNPISSSICHLTNESDGHTTSLYGIGFGPFIITNKHLFRRNNGTLVVQSLHGVFKVKDTTTLQQHLVDGRDMIIIRMPKDFPPFPQKLKFREPQREERICLVTTNFQTKSMSSMVSDTSCTFPSGDGIFWKHWIQTKDGQCGSPLVSTRDGFIVGIHSASNFTNTNNYFTSVPKNFMELLTNQEAQQWVSGWRLNADSVLWGGHKVFMVKPEEPFQPVKEATQL

Variants of B1 are the subject of this assay. Nature of the assay: raw area under fraction-flipped curve 0-4 h after induction (AUC4h, not background-subtracted), DNA-recorder readout of cleavage of the substrate (dimensionless); higher = more cleavage of the substrate by the protease variant. The conditions noted are these: temperature: 34 °C; time window: 0-4 h after rhamnose induction. On the procedure:
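In vivo DNA recorder in E. coli TOP10(DE3) ΔrhaA at 34 °C. Each TEVp single-site mutant (parent TEVp 0) is paired with a single-site variant of the 7-mer TEVs (canonical ENLYFQ|S). The substrate sits between flexible linkers in a Bxb1-sfGFP-TEVs-SsrA fusion, so cleavage stabilises Bxb1 and speeds flipping of a recombination array, read by NGS. The value is the raw area under the fraction-flipped curve over 0-4 h after rhamnose induction (AUC4h), with ≥20 reads per time point. It is not background-subtracted; inactive controls average about 0.047.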
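Note: Bxb1 expression induced with 0.2% (w/v) L-rhamnose at OD600 near 0.5, cultures sampled hourly, flipped fraction per protease–substrate barcode pair counted by paired-end Illumina sequencing.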

Turning to MGESLFKGPRDYNPISSSICHLTNESDGHTTSLYGIGFGPFIITNKHLFRRNNGTLVVQSLHGVFKVKDTTTLQQHLVDGRDMIIIRMPKDFPPFPQKLKFREPQREERICLVTTNFQTKSMSSMVSDTSCTFPSGDGIFWEHWIQTKDGQCGSPLVSTRDGFIVGIHSASNFTNTNNYFTSVPKNFMELLTNQEAQQWVSGWRLNADSVLWGGHKVFMVKPEEPFQPVKEATQL [K142E], the “area with substrate ENLYAQS” value came out at 0.0685, the “area with substrate ENLYDQS” value was 0.0619, the “area with substrate ENLYEQS” value was 0.0679 and the “area with substrate ENLYGQS” value turned out to be 0.0613. Further, the “area with substrate ENLYHQS” value is 0.0609, the “area with substrate ENLYIQS” value was 0.0849, the “area with substrate ENLYKQS” value stood at 0.0718 and the “area with substrate ENLYNQS” value is 0.0644. The “area with substrate ENLYPQS” value amounted to 0.0671, the “area with substrate ENLYQQS” value came to 0.0632, the “area with substrate ENLYRQS” value was 0.0581 and the “area with substrate ENLYSQS” value amounted to 0.0666. The “area with substrate ENLYWQS” value amounted to 0.0583.
Turning to MGESLFKGPRDYNPISSSICHLTNESDGHTTSLYGIGFGPFIITNKHLFRRNNGTLVVQSLHGVFKVKDTTTLQQHLVDGRDMIIIRMPKDFPPFPQKLKFREPQREERICLVTTNFQTKSMSSMVSDTSCTFPSGDGIFWTHWIQTKDGQCGSPLVSTRDGFIVGIHSASNFTNTNNYFTSVPKNFMELLTNQEAQQWVSGWRLNADSVLWGGHKVFMVKPEEPFQPVKEATQL [K142T], the “area with substrate ENLYAQS” value amounted to 0.0595, the “area with substrate ENLYDQS” value turned out to be 0.0642, the “area with substrate ENLYEQS” value was found to be 0.0644 and the “area with substrate ENLYGQS” value was 0.0729. The “area with substrate ENLYHQS” value was determined as 0.0644, the “area with substrate ENLYIQS” value was 0.0956, the “area with substrate ENLYKQS” value was determined as 0.0527 and the “area with substrate ENLYMQS” value is 0.0894. In addition, the “area with substrate ENLYNQS” value worked out at 0.0665, the “area with substrate ENLYPQS” value came to 0.0715, the “area with substrate ENLYRQS” value worked out at 0.064 and the “area with substrate ENLYSQS” value was determined as 0.0591. Moreover, the “area with substrate ENLYTQS” value was determined as 0.0776, the “area with substrate ENLYVQS” value turned out to be 0.0818 and the “area with substrate ENLYWQS” value was found to be 0.0712.
With MGESLFKGPRDYNPISSSICHLTNESDGHTTSLYGIGFGPFIITNKHLFRRNNGTLVVQSLHGVFKVKDTTTLQQHLVDGRDMIIIRMPKDFPPFPQKLKFREPQREERICLVTTNFQTKSMSSMVSDTSCTFPSGDGIFWKPWIQTKDGQCGSPLVSTRDGFIVGIHSASNFTNTNNYFTSVPKNFMELLTNQEAQQWVSGWRLNADSVLWGGHKVFMVKPEEPFQPVKEATQL [H143P], the “area with substrate ENLYAQS” value was 0.061, the “area with substrate ENLYCQS” value turned out to be 0.0468, the “area with substrate ENLYDQS” value is 0.0669 and the “area with substrate ENLYEQS” value came out at 0.048. In addition, the “area with substrate ENLYGQS” value was found to be 0.0451, the “area with substrate ENLYHQS” value came to 0.0502, the “area with substrate ENLYKQS” value came out at 0.0588 and the “area with substrate ENLYMQS” value is 0.0448. Moreover, the “area with substrate ENLYNQS” value turned out to be 0.0673, the “area with substrate ENLYPQS” value was determined as 0.0498, the “area with substrate ENLYRQS” value amounted to 0.0611 and the “area with substrate ENLYSQS” value came to 0.0481. Besides, the “area with substrate ENLYTQS” value stood at 0.0605, the “area with substrate ENLYVQS” value turned out to be 0.0588, the “area with substrate ENLYWQS” value was determined as 0.0561 and the “area with substrate ENLYYQS” value turned out to be 0.0661.
For the variant MGESLFKGPRDYNPISSSICHLTNESDGHTTSLYGIGFGPFIITNKHLFRRNNGTLVVQSLHGVFKVKDTTTLQQHLVDGRDMIIIRMPKDFPPFPQKLKFREPQREERICLVTTNFQTKSMSSMVSDTSCTFPSGDGIFWKRWIQTKDGQCGSPLVSTRDGFIVGIHSASNFTNTNNYFTSVPKNFMELLTNQEAQQWVSGWRLNADSVLWGGHKVFMVKPEEPFQPVKEATQL [H143R], the “area with substrate ENLYAQS” value amounted to 0.0651, the “area with substrate ENLYCQS” value came to 0.0605, the “area with substrate ENLYEQS” value amounted to 0.0588 and the “area with substrate ENLYGQS” value was 0.0592. In addition, the “area with substrate ENLYHQS” value came out at 0.051, the “area with substrate ENLYIQS” value came out at 0.0578, the “area with substrate ENLYKQS” value turned out to be 0.0911 and the “area with substrate ENLYLQS” value came out at 0.0778. The “area with substrate ENLYNQS” value is 0.0593, the “area with substrate ENLYPQS” value was determined as 0.0539, the “area with substrate ENLYRQS” value was 0.0682 and the “area with substrate ENLYSQS” value was 0.0531. Also, the “area with substrate ENLYWQS” value is 0.061 and the “area with substrate ENLYYQS” value was 0.0491.
MGESLFKGPRDYNPISSSICHLTNESDGHTTSLYGIGFGPFIITNKHLFRRNNGTLVVQSLHGVFKVKDTTTLQQHLVDGRDMIIIRMPKDFPPFPQKLKFREPQREERICLVTTNFQTKSMSSMVSDTSCTFPSGDGIFWKHWIQTKDGQCGSPLVSTRFGFIVGIHSASNFTNTNNYFTSVPKNFMELLTNQEAQQWVSGWRLNADSVLWGGHKVFMVKPEEPFQPVKEATQL [D161F]: the “area with substrate ENLYAQS” value is 0.0537, the “area with substrate ENLYDQS” value was found to be 0.0564, the “area with substrate ENLYEQS” value was found to be 0.0585 and the “area with substrate ENLYGQS” value is 0.0523. In addition, the “area with substrate ENLYHQS” value turned out to be 0.0613, the “area with substrate ENLYIQS” value was found to be 0.0766, the “area with substrate ENLYKQS” value came to 0.0388 and the “area with substrate ENLYLQS” value came to 0.055. For the same variant, the “area with substrate ENLYMQS” value amounted to 0.0516, the “area with substrate ENLYNQS” value came to 0.0531, the “area with substrate ENLYPQS” value is 0.0514 and the “area with substrate ENLYRQS” value turned out to be 0.0451. Moreover, the “area with substrate ENLYVQS” value was determined as 0.0713, the “area with substrate ENLYWQS” value stood at 0.0566 and the “area with substrate ENLYYQS” value came out at 0.0445.
